Reference: ChEMBL document CHEMBL4888484, “Replenishing the malaria drug discovery pipeline: Screening and hit evaluation of the MMV Hit Generation Library 1 (HGL1) against asexual blood stage Plasmodium falciparum ,using a nano luciferase reporter read-out” (2022)
The whole screen tested about 150,000 compounds, of which about 540 (0.36%) showed an effect of 50% or more. The list shows a part of the results.

tested on: Plasmodium falciparum; assay: Primary screen in NF54 nanoGlo assay, in single point, at 2uM, 72h; a lower Z score goes with more inhibition; format: functional, Erythrocyte; details: timepoint 72 hour

Row | SMILES | % Inhibition | Z score
1 | CC(C)c1nccn1C1CN(C(=O)c2ccccn2)C1 | -5% | 0.67
2 | C#CCN1C(=O)C2(NC(C)C3C(=O)N(c4cccc5ccccc45)C(=O)C32)c2ccccc21 (stereo not given) | 5% | -0.56
3 | C[C@H](NCCCc1ccc(Br)cc1F)c1cnccn1 | 0% | -0.01
4 | COc1ccnc(NCC2CCC(S(C)(=O)=O)CC2)n1 (stereo not given) | 7% | -1.21
5 | CCCCC(=O)N(Cc1ccc(-c2ccccc2-c2nnn[nH]2)cc1)[C@H](C(=O)NC1CC1)C(C)C | -13% | 1.63
6 | O=S(=O)(CC1CCCCO1)N1CCC(c2nc(C3CC3)no2)C1 (stereo not given) | -5% | 0.66
7 | CC(=O)c1sc(-c2ccc(C)n2C)nc1C | 1% | -0.11
8 | CCCNS(=O)(=O)c1cc(NC(=O)c2cccs2)ccc1Oc1cc(C(=O)O)nn1C | -18% | 2.08
9 | CC(C)c1cc(N2CCCS(=O)(=O)CC2)ncn1 | -7% | 1.09
10 | O=C(NC(Cc1ccncc1)[C@H]1C[C@H](O)C1)c1cccn2cnnc12 (stereo not given in full) | -7% | 0.72
11 | COc1ccc(F)c(F)c1CNC(C)(C)CC(C)C | 1% | -0.13
12 | CC(C(=O)NCC1CCCO1)S(=O)(=O)c1ccc(F)c(F)c1 (stereo not given) | -5% | 0.86
13 | O=S1(=O)CCN(c2ccccc2-c2ncnn2-c2ccccc2)CC1 | -2% | 0.23
14 | O=C(NCc1ccc(F)c(Cl)c1)[C@H]1CC12CCS(=O)(=O)CC2 | -8% | 1.09
15 | COc1c(F)ccc(C(=O)NCCc2nnc(N)s2)c1F | -6% | 0.9
16 | CC(C)[C@H](NS(=O)(=O)N(C)C)c1nccn1C | -8% | 1.23
17 | Cc1cc(COc2ccccc2)oc1C(=O)NCCN1CCCC1=O | 11% | -1.41
18 | CC(C)N1C[C@H](NCc2ccccc2C(F)(F)F)C[C@H]1C(=O)NCCc1ccccc1F | 6% | -0.74
19 | COc1ccc(Cc2nnnn2Cc2nnc(C)o2)cc1F | 1% | -0.15
20 | c1ccc(CC2CCN(Cn3cnc4ccccc43)CC2)cc1 | -6% | 1
21 | OC[C@]1(O)CCCN(Cc2ccccc2C2CC2)C1 | -2% | 0.34
22 | COc1cccc(-c2nc3ccc(-c4ccc(C(C)=O)cc4)cn3c2CN2CCN(C(=O)c3ccc(F)cc3)CC2)c1 | 13% | -2.37

Row | SMILES | % Inhibition | Z score
23 | COc1cc(Br)ccc1C(N)=O | -1% | 0.2
24 | CC(C)(C)C(=O)N1CCN(C(=O)CCS(C)(=O)=O)C(C)(C)C1 | 0% | 0.05
25 | Cc1cc(=O)c2c(=O)n(-c3nc4ccccc4s3)[nH]c2[nH]1 | -8% | 1.25
26 | Cc1oncc1C(=O)N[C@@H](C)Cc1ccc2c(c1)CCO2 | 7% | -1.11
27 | CCCn1cc(-c2ccnc(N[C@H]3CC(=O)N(C(C)C)C3)n2)c(C)n1 | -1% | 0.18
28 | COc1ccc(S(=O)(=O)N2CCN([C@@H](C)CCc3ccccc3)CC2)cc1 | 7% | -0.88
29 | CCn1c(C2CCN(C(=O)c3ccccc3Br)CC2)nn(CCOC)c1=O | 0% | 0.03
30 | CC(C)Cc1noc(C2(c3ccc(Br)cc3)CCOCC2)n1 | -15% | 3.07
31 | CCNC(=O)C(=O)Nc1c(C)cccc1C | -12% | 1.62
32 | O=C(NCCNc1cnccn1)c1ccc(Br)o1 | -15% | 1.48
33 | CN(Cc1ccccc1)C(=O)[C@H]1CCCN(Cc2ccc(Cl)cc2)C1 | 10% | -1.25
34 | COc1ccc(OCC(=O)NC2CCN(c3nc4c(s3)c(C)nn4-c3ccc(F)cc3)CC2)cc1 | -2% | 0.29
35 | CCOCCNC(=O)c1ccc(-c2ncnn2C(C)C)cc1 | -13% | 1.75
36 | COc1ccc(-c2noc(N3CCN(c4ccccc4F)CC3)n2)cc1OC | 8% | -1.29
37 | O=C(O)CCC1CCN(C(=O)c2ccc3c(c2)CCC3)CC1 | 9% | -1.13
38 | O=S(=O)(C1CC1)N1CC(n2cc(-c3ccccc3)nn2)C1 | -19% | 3.18
39 | CN(C)c1cnccc1NC(=O)Nc1cnn(CCF)c1 | 15% | -1.77
40 | Cc1cc(C(=O)N[C@H]2[C@H](O)[C@H](O)C[C@@H]2c2ccc(C(F)(F)F)nc2)nn1C | 20% | -2.3
41 | CC1CC(C)CN(C(=O)NCCOC2CCCCCC2)C1 (stereo not given) | -4% | 0.52
42 | O=C(NCC1CCOCC1)Nc1cccc2ccsc12 | -5% | 0.58
43 | Cc1sc(NC(=O)c2cccs2)c([C@@H](c2ccc(Cl)cc2)N2CCN(C)CC2)c1C | 17% | -3.26
44 | C[C@H](OC(=O)CN1C(=O)c2ccccc2C1=O)C(=O)N1CCc2ccccc21 | -13% | 1.34

Row | SMILES | % Inhibition | Z score
45 | CCCN(C(=O)c1ccc(C)o1)[C@H]1CC(=O)N(C)C1=O | -15% | 1.49
46 | CCOC(=O)[C@H](C(C)C)N1CCC(C(=O)Nc2ccccc2)CC1 | 8% | -0.95
47 | CCC1Oc2ccccc2N(CC(=O)NCCCN2CC(C)CC(C)C2)C1=O (stereo not given) | -3% | 0.55
48 | COc1ccc(Cl)cc1N1CC[C@H](NC(=O)C2(C#N)CCCC2)C1 | -7% | 1.12
49 | N#Cc1ccc(N[C@H]2CCCN(CCO)C2=O)c(F)c1 | -14% | 2.23
50 | CCc1cnc(CNC(=O)N(CC)C2CC(C)(C)C2)s1 | -4% | 0.53
51 | O=C(CN1CCc2cc(-c3ccccc3)oc2C1)N1CCOCC1 | -13% | 1.64
52 | O=C(NCCc1ccccc1)c1cccc2c1C(=O)N(C1CCCCC1)C2 | 16% | -2.1
53 | O=C(NC(=Nc1ccccc1)Nc1ccccc1)c1ccc(Cl)c(Cl)c1 | -1% | 0.17
54 | Cc1noc(C)c1CCC(=O)N1C2CCC1CC(n1cccn1)C2 (stereo not given) | -17% | 2.2
55 | COc1ccc(OC)c(CN[C@H]2CCCN(C)C2)c1 | -6% | 0.96
56 | C[C@@]1(O)CCN[C@@H](c2ccccc2)[C@@H]1NC(=O)c1ccc(F)cc1 | -3% | 0.43
57 | CCc1nn(C)c(OC)c1CNC(=O)Nc1cccc(C)n1 | -2% | 0.24
58 | CC(C)(C)n1ncnc1CNC(=O)NCCOc1ccc(C#N)cc1 | 1% | -0.11
59 | CC(C)(C)c1ccnc(N[C@H]2CO[C@H]3[C@@H]2OC[C@@H]3NC(=O)c2ccccc2)n1 | 12% | -1.35
60 | CNC(=O)[C@@H]1C[C@H](Oc2ccccc2)CN1S(C)(=O)=O | -12% | 1.64
61 | c1cnc(Nc2nc(-c3cccs3)cs2)nc1 | -9% | 1.15
62 | COc1ccc(Br)cc1CN1CCC[C@@H]1CN1CCCC1 | 1% | -0.2
63 | COc1ncc(C(=O)NCCCn2ccnc2)cn1 | -14% | 1.29
64 | Cn1cc(CN(C(=O)Cn2cnc3ccccc3c2=O)C2CCCCC2)cn1 | -15% | 1.41
65 | CC[C@@H](C(=O)N1CC(Oc2ccccc2C)C1)N1Cc2ccccc2C1=O | -15% | 2
66 | O=C(c1ccc2ccccc2c1)N1CCC[C@H]1c1nc2ccccc2s1 | 36% | -1

Row | SMILES | % Inhibition | Z score
67 | Cc1nn(C)c(C)c1CCC(=O)N1CCN(C)Cc2ccccc21 | -8% | 0.64
68 | Cc1ccc(Cn2c(=O)c(C(=O)NCc3ccncc3)nn(-c3ccc(C)c(C)c3)c2=O)cc1 | -15% | 1.5
69 | Cc1ccc(CN2C(=O)[C@@H]3C[C@@H](O)CN3C3(CN(C(C)C)C3)C2=O)o1 | 26% | -2.97
70 | CCCc1nnsc1C(=O)N[C@@H]1COCC[C@@H]1OCc1c(C)noc1C | -4% | 0.66
71 | CCc1nc(-c2ccc(-c3noc(-c4ccco4)n3)cc2)cs1 | -24% | 2.45
72 | CC(NC1CCN(C)C1c1ccccc1)C(=O)NCC1CCCO1 (stereo not given) | 0% | -0.08
73 | COc1ccc(C2=NS(=O)(=O)N(C)C(C(=O)N3CCCc4ccccc43)=C2)cc1OC | -2% | 0.31
74 | Cc1occc1-c1nc(-c2cc(CN3CCOCC3)c[nH]c2=O)no1 | 29% | -3.25
75 | COC(=O)c1ccc(F)c(NCC(=O)NC(N)=O)c1 | 4% | -0.51
76 | O=C(NCCc1ccco1)c1ccc(Nc2ncccn2)cc1 | -15% | 1.92
77 | CCn1c(COC(=O)c2cnccn2)nc2cc(S(=O)(=O)N(C)C)ccc21 | -6% | 0.9
78 | CCOc1ccccc1-c1cc(C(=O)Nc2nc(-c3cc(C)ccc3C)c(C)s2)c2ccccc2n1 | -30% | 3.48
79 | O=C(Nc1cccc(Cl)c1)c1nnc(C(=O)N2CCC[C@H](C(=O)NCCN3CCCC3)C2)s1 | -23% | 1.99
80 | CO[C@H]1CN(C2CCN(C(=O)c3cccc(C)c3)CC2)[C@H]1c1cccnc1 | -19% | 2.18
81 | Oc1cc(OCc2ccccc2F)ccc1-c1[nH]ncc1-c1ccccc1 | 52% | -11.1
82 | COc1cnc(C(=O)N2CCC(C)CC2)cc1O | -2% | 0.46
83 | CCc1nnc2n1CCN(C(=O)C1CC1c1cccc(F)c1)C2 (stereo not given) | -12% | 2.07
84 | CCOc1c(CNC(C)(C)C)cccc1OC | 39% | -5.59
85 | CN1CCC[C@H]1c1cc(C(=O)NCC2(c3ccccc3)CC2)[nH]n1 | -11% | 1.97
